According to the supplement of paper PMC11880418:
Structures can show the parent of a compound that is named as a salt. Some of the results follow. The data scatter; read single values as rough.

Tested on: SUM159
Test: ALDHbr (CSC) cell proportion score relative to DMSO vehicle (ratio to DMSO); breast (SUM159) / gastric (MKN45) / pancreatic (PANC1) / colon cancer lines; ALDHbr cells have high ALDH activity and are rich in cancer stem cells (CSC); higher = more CSC (ALDHbr) cells remaining
Conditions: 10 µM; 72 h
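Note: High-content imaging of ALDEFLUOR-stained cells with Hoechst-labelled nuclei in 384-well plates, triplicate wells, scored as Z-score against 0.1% DMSO vehicle, negative meaning fewer ALDHbr cells.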

| SMILES | ALDHbr |
| --- | --- |
| O=C(NCCNCC(O)COc1ccc(O)cc1)N1CCOCC1 (stereo unspecified) [Xamoterol hemifumarate] | 1.84 |
| Cc1ccc2c(c1)c1c3n2CCNC3CCC1 (stereo unspecified) [Pirlindole mesylate] | 0.661 |
| CC(C(O)c1ccc(O)cc1)N1CCC(Cc2ccccc2)CC1 (stereo unspecified) [Ifenprodil tartrate] | 1.25 |
| Cc1cc(C)nc(NS(=O)(=O)c2ccc(N)cc2)n1 [Sulfamethazine sodium salt] | 1.37 |
| COc1cccc(N(C)C(=S)Oc2ccc3c(c2)CCCC3)n1 [Liranaftate] | 0.937 |
| COc1cc([C@@H]2c3cc4c(cc3[C@@H](O[C@@H]3O[C@@H]5CO[C@@H](C)O[C@H]5[C@H](O)[C@H]3O)[C@H]3COC(=O)[C@H]23)OCO4)cc(OC)c1O [Etoposide] | 1.27 |
